Test results taken from the supplement of paper PMC4604168 (melanoma cell lines).
The list shows a part of the results. Repeats are few or missing, and single values can be far off.

How the values were obtained:
Assay in all cases: cell count relative to DMSO control; melanoma cells; higher = more viable cells
Settings in all cases: library dose: low library concentration; 72 h
WM115 = tested on: WM115
WM1716 = tested on: WM1716
WM1745 = tested on: WM1745
WM3526 = tested on: WM3526
WM3619 = tested on: WM3619
WM451Lu = tested on: WM451Lu
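Also: cell number obtained by counting DAPI-stained nuclei in high-throughput microscope images with image analysis software, screen run in 1,536-well plates.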

Compound	cell count (WM115) [%]	cell count (WM1716) [%]	cell count (WM1745) [%]	cell count (WM3526) [%]	cell count (WM3619) [%]	cell count (WM451Lu) [%]
Nc1nc(F)nc2c1ncn2[C@@H]1O[C@H](CO)[C@@H](O)[C@@H]1O [fludarabine] + COc1ccc(-c2ccc3c(N4CCOCC4)nc(N4C[C@@H](C)O[C@@H](C)C4)nc3n2)cc1CO [KU0063794] (first compound 0.2 µM, partner dose 0.02 µM)	81.5	100	92.1	22.1	103	42.5
CO[C@H]1C[C@@H]2CC[C@@H](C)[C@@](O)(O2)C(=O)C(=O)N2CCCC[C@H]2C(=O)O[C@H]([C@H](C)C[C@@H]2CC[C@@H](OCCO)[C@H](OC)C2)CC(=O)[C@H](C)/C=C(\C)[C@@H](O)[C@@H](OC)C(=O)[C@H](C)C[C@H](C)/C=C/C=C/C=C/1C [everolimus] + COc1ccc(COc2ccc(Cc3cnc(N)nc3N)cc2OC)cc1 [GW2580] (first compound 0.02 µM, partner dose 1 µM)	78.8	77.9	78.9	61	79	90.6
CC(=O)O[C@@]12CO[C@@H]1C[C@H](O)[C@@]1(C)C(=O)[C@H](O)C3=C(C)[C@@H](OC(=O)[C@H](O)[C@@H](NC(=O)OC(C)(C)C)c4ccccc4)C[C@@](O)([C@@H](OC(=O)c4ccccc4)[C@H]21)C3(C)C [Docetaxel] + O=C(O)c1ccc2c(c1)nc(Nc1cccc(Cl)c1)c1ccncc12 [CX4945] (first compound 0.0001 µM, partner dose 0.4 µM)	60.1	39.2	63.6	44.8	61.4	86.6
CC(=O)c1c(C)c2cnc(Nc3ccc(N4CCNCC4)cn3)nc2n(C2CCCC2)c1=O [palbociclib] + COc1cc(N2CCC(N3CCN(C)CC3)CC2)ccc1Nc1ncc(Cl)c(Nc2ccccc2S(=O)(=O)C(C)C)n1 [NVP-TAE684] (first compound 0.04 µM, partner dose 0.08 µM)	64.7	56.6	71.3	50.7	62.4	61.9
CC(=O)O[C@@]12CO[C@@H]1C[C@H](O)[C@@]1(C)C(=O)[C@H](O)C3=C(C)[C@@H](OC(=O)[C@H](O)[C@@H](NC(=O)OC(C)(C)C)c4ccccc4)C[C@@](O)([C@@H](OC(=O)c4ccccc4)[C@H]21)C3(C)C [Docetaxel] + COc1cc(N2CCC(N3CCN(C)CC3)CC2)ccc1Nc1ncc(Cl)c(Nc2ccccc2S(=O)(=O)C(C)C)n1 [NVP-TAE684] (first compound 0.0001 µM, partner dose 0.08 µM)	57.5	42.5	52.1	37	44	49
CO[C@H]1C[C@@H]2CC[C@@H](C)[C@@](O)(O2)C(=O)C(=O)N2CCCC[C@H]2C(=O)O[C@H]([C@H](C)C[C@@H]2CC[C@@H](OCCO)[C@H](OC)C2)CC(=O)[C@H](C)/C=C(\C)[C@@H](O)[C@@H](OC)C(=O)[C@H](C)C[C@H](C)/C=C/C=C/C=C/1C [everolimus] + Oc1cc(-c2nc(-c3ccccc3)[nH]c2-c2ccncc2)ccc1Cl [L779450] (first compound 0.02 µM, partner dose 0.2 µM)	65	80.7	74.2	62.4	55.3	70.3
Nc1ccn([C@@H]2O[C@H](CO)[C@@H](O)C2(F)F)c(=O)n1 [gemcitabine] + Cc1nc(Nc2ncc(C(=O)Nc3c(C)cccc3Cl)s2)cc(N2CCN(CCO)CC2)n1 [dasatanib] (first compound 0.0004 µM, partner dose 0.004 µM)	78	82.7	48.9	126	67.2	97.5
CO[C@H]1C[C@@H]2CC[C@@H](C)[C@@](O)(O2)C(=O)C(=O)N2CCCC[C@H]2C(=O)O[C@H]([C@H](C)C[C@@H]2CC[C@@H](OCCO)[C@H](OC)C2)CC(=O)[C@H](C)/C=C(\C)[C@@H](O)[C@@H](OC)C(=O)[C@H](C)C[C@H](C)/C=C/C=C/C=C/1C [everolimus] + COc1ccc(-c2ccc3c(N4CCOCC4)nc(N4C[C@@H](C)O[C@@H](C)C4)nc3n2)cc1CO [KU0063794] (first compound 0.02 µM, partner dose 0.02 µM)	75.9	70.7	94.7	54.8	66.6	89.5
CC(=O)c1c(C)c2cnc(Nc3ccc(N4CCNCC4)cn3)nc2n(C2CCCC2)c1=O [palbociclib] + Cc1nc(Nc2ncc(C(=O)Nc3c(C)cccc3Cl)s2)cc(N2CCN(CCO)CC2)n1 [dasatanib] (first compound 0.04 µM, partner dose 0.004 µM)	62.3	56.9	70.7	74.9	57.3	73.2
CO[C@H]1C[C@@H]2CC[C@@H](C)[C@@](O)(O2)C(=O)C(=O)N2CCCC[C@H]2C(=O)O[C@H]([C@H](C)C[C@@H]2CC[C@@H](OCCO)[C@H](OC)C2)CC(=O)[C@H](C)/C=C(\C)[C@@H](O)[C@@H](OC)C(=O)[C@H](C)C[C@H](C)/C=C/C=C/C=C/1C [everolimus] + Nc1nc(F)nc2c1ncn2[C@@H]1O[C@H](CO)[C@@H](O)[C@@H]1O [fludarabine] (first compound 0.02 µM, partner dose 0.2 µM)	77.1	69.1	91.7	25.4	81.8	42.4
CC(=O)c1c(C)c2cnc(Nc3ccc(N4CCNCC4)cn3)nc2n(C2CCCC2)c1=O [palbociclib] + N#Cc1c(O)c2c(-c3ccc(-c4ccccc4O)cc3)csc2[nH]c1=O [A769662] (first compound 0.04 µM, partner dose 2 µM)	72.1	57.2	72.6	60.8	70	57.4
Nc1ccn([C@@H]2O[C@H](CO)[C@@H](O)C2(F)F)c(=O)n1 [gemcitabine] + CO[C@@H]1[C@H](N(C)C(=O)c2ccccc2)C[C@H]2O[C@]1(C)n1c3ccccc3c3c4c(c5c6ccccc6n2c5c31)C(=O)NC4 [Midostaurin] (first compound 0.0004 µM, partner dose 0.08 µM)	86.3	71.8	67.1	106	59.7	114
CC(=O)O[C@@]12CO[C@@H]1C[C@H](O)[C@@]1(C)C(=O)[C@H](O)C3=C(C)[C@@H](OC(=O)[C@H](O)[C@@H](NC(=O)OC(C)(C)C)c4ccccc4)C[C@@](O)([C@@H](OC(=O)c4ccccc4)[C@H]21)C3(C)C [Docetaxel] + C[C@@H](Oc1cc(-c2cnn(C3CCNCC3)c2)cnc1N)c1c(Cl)ccc(F)c1Cl [Crizotinib] (first compound 0.0001 µM, partner dose 0.2 µM)	55.9	47.5	66.1	45.2	60.7	46.3
Nc1ccn([C@@H]2O[C@H](CO)[C@@H](O)C2(F)F)c(=O)n1 [gemcitabine] + CCCS(=O)(=O)Nc1ccc(F)c(C(=O)c2c[nH]c3ncc(Cl)cc23)c1F [PLX4720] (first compound 0.0004 µM, partner dose 0.08 µM)	91.7	116	86.8	80	78.6	91.8
Nc1nc(F)nc2c1ncn2[C@@H]1O[C@H](CO)[C@@H](O)[C@@H]1O [fludarabine] + CC(=O)c1c(C)c2cnc(Nc3ccc(N4CCNCC4)cn3)nc2n(C2CCCC2)c1=O [palbociclib] (first compound 0.2 µM, partner dose 0.04 µM)	66.7	69.2	74.4	30	62.4	45.9
Nc1ccn([C@@H]2O[C@H](CO)[C@@H](O)C2(F)F)c(=O)n1 [gemcitabine] + COc1cc2c(Oc3ccc4[nH]c(C)cc4c3F)ncnc2cc1OCCCN1CCCC1 [cediranib] (first compound 0.0004 µM, partner dose 0.4 µM)	89.4	93	55.2	97.1	81.2	110
CC(=O)c1c(C)c2cnc(Nc3ccc(N4CCNCC4)cn3)nc2n(C2CCCC2)c1=O [palbociclib] + COc1cc(Nc2ncc(F)c(Nc3ccc4c(n3)NC(=O)C(C)(C)O4)n2)cc(OC)c1OC [Tamatinib] (first compound 0.04 µM, partner dose 0.4 µM)	69.4	52.9	51.7	48.5	77	80.8
Nc1nc(F)nc2c1ncn2[C@@H]1O[C@H](CO)[C@@H](O)[C@@H]1O [fludarabine] + COc1ccc(COc2ccc(Cc3cnc(N)nc3N)cc2OC)cc1 [GW2580] (first compound 0.2 µM, partner dose 1 µM)	97.9	103	101	36.9	94.5	56.4
Nc1ncn([C@H]2C[C@H](O)[C@@H](CO)O2)c(=O)n1 [decitabine] + Cc1cc(N2CCOCC2)cc2[nH]c(-c3c(NC[C@@H](O)c4cccc(Cl)c4)cc[nH]c3=O)nc12 [BMS536924] (first compound 0.1 µM, partner dose 0.2 µM)	91.8	83.3	78.1	103	93.6	93.2
CO[C@H]1C[C@@H]2CC[C@@H](C)[C@@](O)(O2)C(=O)C(=O)N2CCCC[C@H]2C(=O)O[C@H]([C@H](C)C[C@@H]2CC[C@@H](OCCO)[C@H](OC)C2)CC(=O)[C@H](C)/C=C(\C)[C@@H](O)[C@@H](OC)C(=O)[C@H](C)C[C@H](C)/C=C/C=C/C=C/1C [everolimus] + C=CCn1c(=O)c2cnc(Nc3ccc(N4CCN(C)CC4)cc3)nc2n1-c1cccc(C(C)(C)O)n1 [MK1775] (first compound 0.02 µM, partner dose 0.02 µM)	61.2	70.3	70.7	61.1	51.4	92.8
Nc1ncn([C@H]2C[C@H](O)[C@@H](CO)O2)c(=O)n1 [decitabine] + CC1(C)NC(=O)N(c2ccc([N+](=O)[O-])c(C(F)(F)F)c2)C1=O [nilutamide] (first compound 0.1 µM, partner dose 1 µM)	76.8	78.3	116	116	123	131
